Reference: PubChem BioAssay AID1345083 (National Center for Advancing Translational Sciences (NCATS), 2018)
The campaign covered roughly 94,000 compounds. About 6,200 (6.6%) were called active. The inconclusive results got no clear call from the source; some entries with a clear call stand among them for comparison. Calls come from the whole dose curve; as a rule, active = well fitted inhibition curve with a large enough effect; inconclusive = small, poorly fitted or top-dose-only effect; inactive = flat fitted curve, though single readings scatter. A potency beside an inconclusive call is a rough fit, not a confirmed value.
Potency is the fitted concentration of half-maximal effect; tags give direction and shape of the fitted curve.

Assay: Cytotoxic Profiling in HEK 293 Cell Line of Diverse Libraries Using Quantitative High-Throughput Screening; note: nearly all actives have a fitted effect of over 60% in size
Conditions: HEK 293 viability, ATP luminescence (CellTiter-Glo), 48-72 h; series mostly up to 115 µM
Summary of the method: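 Luminescence from cellular ATP, measured with CellTiter-Glo, indicates HEK 293 viability. Cells plated at 250 cells/well are treated with compound for 48 or 72 hr at 37 degree Celsius before reagent addition.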
In the case of `CC[C@H]1CN2CC[C@H]1C[C@@H]2CNC(=O)c1ccc2ccccc2c1`, the Potency was inconclusive: 112 µM [inhibitor, partial curve, poor fit].
In the case of `CCn1nccc1C(=O)N1[C@H]2CC[C@@H]1c1cnc(-c3ccc(F)cc3)nc1C2`, the Potency was inconclusive: 10 µM [inhibitor, full curve, poor fit].
With `CCC(c1cccs1)N1C(=O)[C@H]2CNC[C@H]2C1=O` (stereo not given in full) the Potency was “inactive”.
With `Cc1cccc(C(=O)N2[C@H]3CC[C@@H]2c2cnc(-c4ccccc4)nc2C3)c1` the Potency was inconclusive: 50.1 µM [inhibitor, partial curve, poor fit].
With `CC[C@H]1CN2CC[C@H]1C[C@@H]2CN(Cc1ccc(SC)cc1)Cc1ccc(SC)cc1` the Potency was active: 7.08 µM.
In the case of `CCS(=O)(=O)N1CC(COC)C2(CCNCC2)C1` (stereo not given), the Potency was “inactive”.
For `COc1cc2c(cc1OCc1ccccc1)N(C(=O)c1cnn(C)c1)CC21CCN(C)CC1`, the Potency was inconclusive: 89.1 µM [inhibitor, single point].
In the case of `COc1ccc(-c2cc([C@H]3CN4CC[C@H]3C[C@@H]4CNC(=O)c3ccc(C)cc3)n(C)n2)cc1OC`, the Potency was inconclusive: 89.1 µM [inhibitor, single point].
With `CN1CCNc2cc(Nc3ccc(F)cc3)ncc2C1` the Potency was inconclusive: 112 µM [inhibitor, partial curve, poor fit].
In the case of `COc1cc2c(cc1CCc1ccccc1)N([S+](=O)([O-])c1cn(C)cn1)CC21CCN(C(C)=O)CC1`, the Potency was inconclusive: 89.1 µM [inhibitor, single point].
For `COc1ccc(CC(=O)N2CCN(CCn3nc4n(c3=O)CCCC4)CC2)cc1`, the Potency was “inactive”.
With `O=C(Cc1ccc(F)cc1)N1CCN(CCCn2nc3n(c2=O)CCCC3)CC1` the Potency was “inactive”.
In the case of `O=C1NC2(CCN(Cc3ccccn3)C2)Oc2ccccc21` (stereo not given), the Potency was inconclusive: 28.2 µM [inhibitor, full curve].
In the case of `CCCS(=O)(=O)Nc1ccc(=O)n2c1[C@@H]1C[C@@H](CN(S(=O)(=O)c3ccccc3)C1)C2`, the Potency was “inactive”.
In the case of `O=C(NC1CC1)[C@H]1CN2CCC1C[C@@H]2Cn1cc(C2(O)CCCCC2)nn1` (stereo not given in full), the Potency was “inactive”.
For `COc1ccc(CC(=O)N2CCN(Cc3ccccc3-c3ccc(C)c(Cl)c3)CC2)cc1`, the Potency was inconclusive: 50.1 µM [inhibitor, partial curve, poor fit].
With `O=C(Nc1ccccc1F)N1[C@H]2CC[C@@H]1c1cncnc1C2` the Potency was “inactive”.
In the case of `O=C(NC[C@H]1C[C@@H]2CCN1C[C@@H]2CN1CCN(c2ccccc2)CC1)Nc1ccsc1`, the Potency was inconclusive: 56.2 µM [inhibitor, partial curve, poor fit].
In the case of `COc1ccc(-c2cc3c(cc2OC)C2(CCN(C(C)=O)CC2)C(=O)N3)cc1OC`, the Potency was inconclusive: 79.4 µM [inhibitor, partial curve].
For `Cn1nc(-c2ccc3ccccc3c2)cc1[C@H]1CN2CC[C@H]1C[C@@H]2CNC(=O)Nc1ccccc1`, the Potency was inconclusive: 20 µM [inhibitor, full curve, poor fit].
In the case of `CN1CCN(C)c2cc(Nc3ccncc3)ncc2C1`, the Potency was “inactive”.
For `Cc1ccc(S(=O)(=O)NC[C@H]2C[C@@H]3CCN2C[C@@H]3c2cc(-c3ccccc3Br)nc(C)n2)cc1`, the Potency was inconclusive: 89.1 µM [inhibitor, partial curve, poor fit].
For `Cc1ccc(C)c(S(=O)(=O)N2[C@H]3CC[C@@H]2c2cnc(-c4ccc(F)cc4)nc2C3)c1`, the Potency was inconclusive: 50.1 µM [inhibitor, partial curve, poor fit].
In the case of `COc1cc2c(cc1OCc1ccncc1)NC(=O)C21CCN(c2ncc(F)cn2)CC1`, the Potency was active: 50.1 µM.
With `CN1CC[C@H]2CN(c3cc(NCCO)ncn3)C[C@@]2(C(=O)O)C1` the Potency was “inactive”.
With `COc1ccccc1-c1cc([C@H]2CN3CC[C@H]2C[C@@H]3CNC(=O)COc2ccccc2)n(C)n1` the Potency was inconclusive: 50.1 µM [inhibitor, partial curve, poor fit].
In the case of `Cc1noc(C)c1CN1CCCCC1c1cccnc1` (stereo not given), the Potency was “inactive”.
With `O=C1NC[C@H]2CN(Cc3ccccc3)CCN12` the Potency was “inactive”.
With `O=C(NCc1ccccc1)[C@H]1CN2CCC1C[C@@H]2Cn1cc(CC2CCCCC2)nn1` (stereo not given in full) the Potency was “inactive”.
For `c1cncc(CN2CCCC3(CC(c4cccnc4)=NO3)C2)c1` (stereo not given), the Potency was “inactive”.
In the case of `CC(=O)N1CC2(CCN(Cc3cccnc3)C2)Cc2ccccc21` (stereo not given), the Potency was “inactive”.
For `COc1cc2c(cc1Oc1ccccc1)NC(=O)C21CCN(Cc2nccn2C)CC1`, the Potency was active: 100 µM.
In the case of `COc1ccc(-c2cc([C@H]3CN4CC[C@H]3C[C@@H]4CNC(=O)c3ccc(C)cc3)n(C)n2)cc1`, the Potency was inconclusive: 39.8 µM [inhibitor, partial curve, poor fit].
In the case of `Cc1ccc2c(n1)N(C)[C@H](CO)CCN(CC(C)C)C2`, the Potency was inconclusive: 141 µM [inhibitor, single point].
For `COc1cc2c(cc1-c1cccnc1OC)NC(=O)C21CCN(C(C)=O)CC1`, the Potency was “inactive”.
For `COc1cc2c(cc1OCc1ccccc1)N(C(=O)CCc1ccccn1)CC21CCN(C)CC1`, the Potency was inconclusive: 50.1 µM [inhibitor, partial curve, poor fit].
In the case of `COc1cc2c(cc1OCc1ccccc1)N(C(=O)CC(C)C)CC21CCN(C)CC1`, the Potency was active: 100 µM.
For `COCc1cn(C[C@H]2C[C@@H]3CCN2C[C@@H]3C(=O)NCc2ccccc2OC)nn1`, the Potency was “inactive”.
For `Nc1cccc(-c2cn(C[C@H]3CC4CCN3C[C@@H]4C(=O)Nc3ccccc3)nn2)c1` (stereo not given in full), the Potency was “inactive”.
With `COCC(=O)NC[C@H]1C[C@@H]2CCN1C[C@@H]2c1cc(-c2ccccc2Br)nc(C)n1` the Potency was inconclusive: 100 µM [inhibitor, single point].
In the case of `CN1Cc2ccccc2-n2ccnc2C12CCN(C(=O)c1ccc(F)cc1)CC2`, the Potency was “inactive”.
For `COc1ccc(C(=O)N2[C@H]3CC[C@@H]2c2cnc(-c4ccc(F)cc4)nc2C3)cc1OC`, the Potency was inconclusive: 50.1 µM [inhibitor, partial curve, poor fit].
For `CN1CCN(C(=O)Cc2c[nH]c3ncc(-c4cccc(Cl)c4)cc23)CC1`, the Potency was active: 89.1 µM.
With `CCCN1CC2(CCN(C)CC2)CC1C(=O)N(C)Cc1ccon1` (stereo not given) the Potency was inconclusive: 25.1 µM [inhibitor, full curve, poor fit].
For `CCOC(=O)[C@H]1CN(C(=O)c2ccc(Cl)cc2)[C@]2(C)C(=O)N(C)c3ccccc3[C@H]12`, the Potency was inconclusive: 35.5 µM [inhibitor, partial curve, poor fit].
With `O=C(O)C1=NOC2CN(CC3CCCC3)CC12` (stereo not given) the Potency was “inactive”.
For `Cc1nc(-c2ccccc2Br)cc([C@H]2CN3CC[C@H]2C[C@@H]3CNC(=O)C2CC2)n1`, the Potency was inconclusive: 89.1 µM [inhibitor, single point].
With `CC(C)NC(=O)NC[C@H]1C[C@@H]2CCN1C[C@@H]2c1cc(-c2ccc(F)cc2)nn1C` the Potency was inconclusive: 100 µM [inhibitor, partial curve, poor fit].
In the case of `O=C(Cc1c(F)cccc1Cl)N1[C@H]2CC[C@@H]1c1cnc(-c3ccccc3)nc1C2`, the Potency was inconclusive: 56.2 µM [inhibitor, partial curve, poor fit].
In the case of `O=C(NC[C@H]1C[C@@H]2CCN1C[C@@H]2CN1CCOCC1)Nc1ccsc1`, the Potency was “inactive”.
In the case of `CC(C)NC(=O)N1[C@H]2CC[C@@H]1c1cncnc1C2`, the Potency was “inactive”.
For `COc1cc([C@@H]2c3cc4c(cc3[C@H](O)[C@@H](CO)[C@@H]2C(=O)N2CCCC2)OCO4)cc(OC)c1OC`, the Potency was inconclusive: 89.1 µM [inhibitor, single point].
With `O=C(NC1CCCCC1)N1C[C@@H]2C[C@H](C1)c1c(/C=C/c3ccc(Cl)cc3)ccc(=O)n1C2` the Potency was “inactive”.
For `CCCCc1cn(C[C@H]2C[C@@H]3CCN2C[C@@H]3C(=O)Nc2nccs2)nn1`, the Potency was “inactive”.
With `COc1ccc(OC)c(S(=O)(=O)N2[C@H]3CC[C@@H]2c2cnc(-c4ccccc4)nc2C3)c1` the Potency was inconclusive: 79.4 µM [inhibitor, partial curve, poor fit].
For `CN1Cc2ccccc2-n2ccnc2C12CCN(C(=O)c1ccc(Br)o1)CC2`, the Potency was inconclusive: 44.7 µM [inhibitor, partial curve, poor fit].
In the case of `Cc1nc(-c2ccccc2Br)cc([C@H]2CN3CC[C@H]2C[C@@H]3CNC(=O)CSCC(=O)O)n1`, the Potency was “inactive”.
For `COc1cc2c(cc1Oc1ccccc1)NC(=O)C21CCN(CC2CC2)CC1`, the Potency was inconclusive: 89.1 µM [inhibitor, partial curve, poor fit].
With `COc1cc2c(cc1OCC1CC1)NC(=O)C21CCN(c2ncc(C(C)C)cn2)CC1` the Potency was active: 100 µM.
With `O=c1ccc(-c2cccs2)c2n1C[C@H]1C[C@@H]2CN(S(=O)(=O)c2cccs2)C1` the Potency was “inactive”.
In the case of `Cc1ccc(C(=O)NC[C@H]2C[C@@H]3CCN2C[C@@H]3c2cc(-c3ccccc3)nn2C)cc1`, the Potency was inconclusive: 63.1 µM [inhibitor, full curve, poor fit].
For `COc1cc2c(cc1OCC1CCCC1)N([S+](=O)([O-])c1cccc(C(F)(F)F)c1)CC21CCN(CC(=O)O)CC1`, the Potency was active: 44.7 µM.
For `Cn1cc(-c2cnc3[nH]cc(CC(=O)N4CCN(Cc5ccccc5)CC4)c3c2)cn1`, the Potency was inconclusive: 79.4 µM [inhibitor, partial curve].
With `CC(=O)N1CC2(CCCN2Cc2cccnc2)Cc2ccccc21` (stereo not given) the Potency was inconclusive: 89.1 µM [inhibitor, single point].
With `CCCS(=O)(=O)NC[C@H]1C[C@@H]2CCN1C[C@@H]2c1cc(-c2ccccc2Br)nc(C)n1` the Potency was inconclusive: 89.1 µM [inhibitor, single point].
